We go through one compound from US9034857B2 (Health Research, Inc., priority 2010, dated 2015).

For this test, the system named is growth arrest of stationary phase cells in G0/G1.

Regarding `CC(=O)N[C@@H](CS)C(=O)O` [N-acetylcysteine], the G0/G1 arrest entry (Table 2 summary, stationary phase) was “↓”. The “fraction of cells with visible buds” value (wild type cells, day 3 of medium depletion) is recorded as “dose-dependent increase”.
